Laboratory results from patent US20250041455A1 (Regeneron, published 2025).

B1: 12835B scFv (VH-VK) (scFv)
chain: EVQLVESGGGLIQPGGSLRLSCEASGFTFRNYEMNWVRQAPGKGLEWVSYISSSGNMKDYAESVKGRFTISRDNVKNSLQLQMNSLRVEDTAVYYCARDEFPYGMDVWGQGTTVTVSS[here about 100 residues without letters]
B2: 12839B scFv (VH-VK) (scFv)
chain: QVQLVESGGGVVQPGRSLRLSCAASGFPFSNYVMYWVRQAPGKGLEWVALIFFDGKKNYHADSVKGRFTITRDNSKNMLYLQMNSLRPEDAAVYYCAKIHCPNGVCYKGYYGMDVWGQGTTVTVSS[here about 100 residues without letters]
B3: 12841B scFv (VH-VK) (scFv)
chain: EVQLVESGGGLVQPGGSLRLSCAASGFTFSNYWMNWVRQAPGKGLEWVANIKEDGGKKLYVDSVKGRFTISRDNAKNSLFLQMNSLRAEDTAVYYCAREDTTLVVDYYYYGMDVWGQGTTVTVSS[here about 100 residues without letters]
B4: 12843B scFv (VH-VK) (scFv)
chain: EVQLVESGGGLVQPGGSLRLSCAASGFTFNIFEMNWVRQAPGKGLEWISYISSRGTTTYYADSVRGRFTISRDNAKNSLYLQMNSLRAEDTAVYYCARDYEATIPFDFWGQGTLVTVSS[here about 100 residues without letters]
B5: 12845B scFv (VH-VK) (scFv)
chain: EVQLVESGGGLVQPGGSLRLSCAASGFTVSNYEMNWVRQAPGKGLEWVSYISSSTSNIYYADSVKGRFTISRDNAENSLYLQMNSLRVEDTAVYYCVRDGIVVVPVGRGYYYYGLDVWGQGTTVTVSS[here about 100 residues without letters]
B6: 12847B scFv (VH-VK) (scFv)
chain: EVQLVESGGGLVQPGRSLRLSCAASGFTFDDYAMNWVRQAPGKGLEWVSGISWSSGSMDYADSVKGRFTISRDNAKNSLYLQMNSLRTEDTALYYCAKAREVGDYYGMDVWGQGTTVTVSS[here about 100 residues without letters]
B7: 69323 scFv (VH-VK) (scFv)
chain: EVQLVESGGGLVQPGRSLRLSCAASGFTFDDYAMHWVRQAPGKGLEWVSGISWNSGYIGYADSVKGRFTISRDNAENSLHLQMNSLRAEDTALYYCARGGSTLVRGVKGGYYGMDVWGQGTTVTVSS[here about 100 residues without letters]

Target: T1, hmm.hTfRC (REGN2431) (human, UniProt P02786)
T1 construct: also called hmm.hTfR(C89-F763); His-myc-myc-hTFRC ecto
Assay: blocking ELISA; Hmm-hTFRC + supernatant on plate-bound holo-Tf

T1 sequence (P02786 other isoform, or with tags, fused parts or gaps): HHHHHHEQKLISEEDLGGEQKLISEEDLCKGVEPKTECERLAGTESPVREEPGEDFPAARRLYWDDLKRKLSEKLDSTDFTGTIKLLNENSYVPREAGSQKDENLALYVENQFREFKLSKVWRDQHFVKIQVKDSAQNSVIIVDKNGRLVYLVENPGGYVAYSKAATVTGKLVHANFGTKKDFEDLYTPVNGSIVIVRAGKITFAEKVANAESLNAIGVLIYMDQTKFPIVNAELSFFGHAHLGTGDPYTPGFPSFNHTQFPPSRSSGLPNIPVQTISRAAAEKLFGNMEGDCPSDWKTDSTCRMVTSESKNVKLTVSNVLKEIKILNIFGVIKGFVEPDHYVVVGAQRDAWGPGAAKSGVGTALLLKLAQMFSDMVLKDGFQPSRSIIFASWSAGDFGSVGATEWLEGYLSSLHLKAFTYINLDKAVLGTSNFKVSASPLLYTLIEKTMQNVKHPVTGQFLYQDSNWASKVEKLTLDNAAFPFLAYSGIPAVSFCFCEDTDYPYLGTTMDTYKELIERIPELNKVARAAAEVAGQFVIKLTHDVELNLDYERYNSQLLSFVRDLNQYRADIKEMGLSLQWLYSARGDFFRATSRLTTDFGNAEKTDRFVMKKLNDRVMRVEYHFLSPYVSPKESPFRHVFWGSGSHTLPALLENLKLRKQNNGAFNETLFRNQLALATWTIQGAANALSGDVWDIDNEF

Binder | % Blocking
B1 | 45%
B2 | 23%
B3 | 10%
B4 | 17%
B5 | 18%
B6 | 11%
B7 | 7%
